Data as given in the RNAGym collection of RNA variant scans (doi:10.1093/nar/gkz1192).
Read counts are not given, so values of variants with three or more changes are uncertain.

B1: CPEB3 Ribozyme (parent)
chain: UAACAGGGGGCCACAGCAGAAGCGUUCACGUCGCAGCCCCUGUCAGAUUCUGGUGAAUCUGCGAAUUCUGCUGUAUAUCUC

Variants of: B1
Assay: self-cleavage, relative activity (ratio to wild type); higher = more cleavage; in vitro, sequencing
In short: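 Relative activity compares each variant's cleaved/total read fraction with that of the unmutated ribozyme. To get these fractions, barcoded CPEB3 ribozyme libraries from rounds of error-prone PCR were transcribed with T7 RNA polymerase for 5 hours at 37°C and then given 15 min of DNase I treatment before EDTA was added. The RNAs were reverse transcribed with template switching and sequenced on Illumina, and DNA sequencing linked barcodes to variants. A minimum of 5 reads applied, and three batches were averaged.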

Variant	self-cleavage
U26C G55A C59U U72A	0.07
U26C G55A U72A	0.29
U26C G55U A56G	0.38
U26C G55U C62U	0.16
U26C G55U U67C U72A U80A	0.08
U26C G61A A64G	0.18
U26C G61A A64U	0.12
U26C G61A G63A	0.22
U26C G61A G70C	0.13
U26C G61C U66C U80C	0.1
U26C G63U U80C	0.54
U26C U31A A35G U54C U69A	0.13
U26C U31A A35G U72A	0.13
U26C U31A A35U G70A	0.11
U26C U31A A56G U78G	0.14
U26C U31A A57G	0.25
U26C U31A A64G U69A	0.14
U26C U31A C34U A45U A75U U78C	0.22
U26C U31A C50G A75G	0.06
U26C U31A C59U	0.37
U26C U31A C59U A65C	0.19
U26C U31A G46A A56U U78A	0.11
U26C U31A G52A A56G U60A U66C U72C	0.04
U26C U31A G52A U66A	0.11

Variant	self-cleavage
U26C U31A U41A U69C A75G	0.09
U26C U31A U43A U54A U78C	0.15
U26C U31A U49A U58C U67C U80C	0.07
U26C U31A U49C U51C U67C U72C	0.05
U26C U31A U51A U60C U80C	0.29
U26C U31A U58A C59A	0.08
U26C U31A U67C	0.23
U26C U31A U69A	0.16
U26C U31C A35G U41A G42U A57G U67C	0
U26C U31C A35U	0.29
U26C U31C A35U U69C	0.29
U26C U31C A45C	0.35
U26C U31C A45G U51A A56G U72A	0.04
U26C U31C A45G U67C	0.14
U26C U31C A45U U49C U66A	0.16
U26C U31C A47G U54C U66A	0.13
U26C U31C A47G U66C U72C C81U	0
U26C U31C C37U U67A U80C	0.13
U26C U31C C38U G46A U66G	0.07
U26C U31C C62G	0.1
U26C U31C C79U	0.53
U26C U31C G36A	0.13
U26C U31C G42U U49G U51C G53U U60C	0.12
U26C U31C U41A C62A	0.17

Variant	self-cleavage
U26C U31C U41A U80A	0.28
U26C U31C U43A A65G	0.13
U26C U31C U48G A56U	0.08
U26C U31C U49C A56G U72A U76C U80A	0.26
U26C U31C U49C G52C	0.22
U26C U31C U54A U80A	0.3
U26C U31C U58C	0.36
U26C U31C U60C U78C	0.24
U26C U31C U66G U80C	0.14
U26C U31C U67A U72C U74C	0.17
U26C U31C U74C A77G	0.64
U26C U31G A35U U48C	0.21
U26C U31G A45G U48C U60G A64G	0.19
U26C U31G A57G	0.19
U26C U31G C44A U74A U80C	0.14
U26C U31G U60C	0.07
U26C U31G U72C	0.14
U26C U41A A45G C50A U67A	0.2
U26C U41A A47G G52A U69C U80G	0.07
U26C U41A A47G U72C	0.09
U26C U41A A57G	0.21
U26C U41A C44U	0.08
U26C U41A G42A U49C U67C	0.08
U26C U41A G55A	0.3

Variant	self-cleavage
U26C U41A G63A A65C U67C	0.1
U26C U41A U43A U51A A57G U60C C79U	0.21
U26C U41A U43A U60C U69C	0.37
U26C U41A U48C	0.17
U26C U41A U48C A77G	0.4
U26C U41A U48C U51A A56U G63A	0.06
U26C U41A U51C U58C	0.09
U26C U41A U51G A57G	0.34
U26C U41A U54C C68A	0.08
U26C U41A U58G U67C	0.18
U26C U41A U60A U72A	0.44
U26C U41A U67A U78A	0.16
U26C U41A U67C	0.12
U26C U41A U67C C71G	0.22
U26C U41A U69C U72C	0.1
U26C U41C A45U U49C U60C	0.06
U26C U41C A77U	0.48
U26C U41C G42C A57G U58C	0.16
U26C U41C G46A U48G U67C	0.1
U26C U41C G46U U49C	0.19
U26C U41C G52A G63C U72C	0.29
U26C U41C U43C U48C U60A U72A	0.1
U26C U41C U49C U72C	0.17
U26C U41C U51A A56G	0.26

Variant	self-cleavage
U26C U41C U60C U72C	0.1
U26C U41C U67A	0.15
U26C U41C U67G A75G A77G	0.07
U26C U41C U72A	0.35
U26C U41C U72C	0.43
U26C U41C U78C	0.28
U26C U41C U80A	0.48
U26C U41G A45G U51C A65U U67A U80C	0.07
U26C U41G A45U A47G	0.19
U26C U41G C68A	0.16
U26C U41G G42A U49C U54C A65G	0.13
U26C U41G U43C G70A U76C U80C	0.16
U26C U41G U51A C62U U67C U74C	0.16
U26C U41G U66G G70A U80C	0.12
U26C U41G U69C	0.15
U26C U41G U80A	0.23
U26C U43A A47U	0.32
U26C U43A A57G U69A	0.23
U26C U43A A57G U72C	0.4
U26C U43A A77U	0.28
U26C U43A U49C U51A U72C U74C A77G	0.14
U26C U43A U54C U60A A77U U78C	0.09
U26C U43A U67C U76C	0.05
U26C U43A U74C	0.34

Variant	self-cleavage
U26C U43C A45U	0.36
U26C U43C A45U U48C A56G C62A	0.12
U26C U43C A45U U69C	0.14
U26C U43C A47C A65G	0.29
U26C U43C A47G U69A	0.39
U26C U43C A47U U51A U72C	0.05
U26C U43C A56G	0.24
U26C U43C A57G G63U U66C U76C A77G	0.12
U26C U43C A57G U66A	0.09
U26C U43C C62U A64G U69C U74C	0.16
U26C U43C U48C C71U	0.14
U26C U43C U49C	0.27
U26C U43C U51C G53U A65G	0.22
U26C U43C U54A U72C	0.77
U26C U43C U60A U66A U76C	0.15
U26C U43C U60C A65G	0.17
U26C U43C U60C U66C U69C	0.11
U26C U43C U66C	0.26
U26C U43C U69C U80C	0.11
U26C U43C U80C	0.57
U26C U43G A56U U67A	0.22
U26C U43G G53A	0.2
U26C U43G U48C A77U	0.2
U26C U43G U76C	0.52

Variant	self-cleavage
U26C U48A A57G U72G	0.08
U26C U48C A56G U76C U80A	0.13
U26C U48C A64U U69A	0.31
U26C U48C G53A A57G	0.51
U26C U48C G55C	0.2
U26C U48C G61A A64U U76C	0.25
U26C U48C U49A U60A	0.14
U26C U48C U54A U74A	0.5
U26C U48C U60C	0.23
U26C U48C U67A U74C	0.24
U26C U48C U67C	0.36
U26C U48C U80C	0.42
U26C U48G A64G	0.15
U26C U49A C81A	0.29
U26C U49A U67A U74C U76C	0.12
U26C U49A U74C	0.45
U26C U49C A56G G70A	0.16
U26C U49C A64G U76C U80C	0.13
U26C U49C A65U	0.09
U26C U49C A75U	0.41
U26C U49C U51A U54A U69C	0.64
U26C U49C U51C	0.21
U26C U49C U54C A56U U74C	0.15
